Measured values from paper PMC4336329 (PLoS ONE, 2015).
The whole screen tested about 310,000 compounds, of which about 14,000 (4.5%) showed an effect of 50% or more. Effects have a minus sign here. Some of the results follow.

biological target: human ether-à-go-go-related gene (hERG) potassium channel (human, UniProt Q12809); assay: primary screen, population patch clamp on CHO cells stably expressing hERG
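Further: peak tail current of the secondary pulse compared with the same well before compound.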

Sequence of human ether-à-go-go-related gene (hERG) potassium channel (Q12809 whole entry, looked up): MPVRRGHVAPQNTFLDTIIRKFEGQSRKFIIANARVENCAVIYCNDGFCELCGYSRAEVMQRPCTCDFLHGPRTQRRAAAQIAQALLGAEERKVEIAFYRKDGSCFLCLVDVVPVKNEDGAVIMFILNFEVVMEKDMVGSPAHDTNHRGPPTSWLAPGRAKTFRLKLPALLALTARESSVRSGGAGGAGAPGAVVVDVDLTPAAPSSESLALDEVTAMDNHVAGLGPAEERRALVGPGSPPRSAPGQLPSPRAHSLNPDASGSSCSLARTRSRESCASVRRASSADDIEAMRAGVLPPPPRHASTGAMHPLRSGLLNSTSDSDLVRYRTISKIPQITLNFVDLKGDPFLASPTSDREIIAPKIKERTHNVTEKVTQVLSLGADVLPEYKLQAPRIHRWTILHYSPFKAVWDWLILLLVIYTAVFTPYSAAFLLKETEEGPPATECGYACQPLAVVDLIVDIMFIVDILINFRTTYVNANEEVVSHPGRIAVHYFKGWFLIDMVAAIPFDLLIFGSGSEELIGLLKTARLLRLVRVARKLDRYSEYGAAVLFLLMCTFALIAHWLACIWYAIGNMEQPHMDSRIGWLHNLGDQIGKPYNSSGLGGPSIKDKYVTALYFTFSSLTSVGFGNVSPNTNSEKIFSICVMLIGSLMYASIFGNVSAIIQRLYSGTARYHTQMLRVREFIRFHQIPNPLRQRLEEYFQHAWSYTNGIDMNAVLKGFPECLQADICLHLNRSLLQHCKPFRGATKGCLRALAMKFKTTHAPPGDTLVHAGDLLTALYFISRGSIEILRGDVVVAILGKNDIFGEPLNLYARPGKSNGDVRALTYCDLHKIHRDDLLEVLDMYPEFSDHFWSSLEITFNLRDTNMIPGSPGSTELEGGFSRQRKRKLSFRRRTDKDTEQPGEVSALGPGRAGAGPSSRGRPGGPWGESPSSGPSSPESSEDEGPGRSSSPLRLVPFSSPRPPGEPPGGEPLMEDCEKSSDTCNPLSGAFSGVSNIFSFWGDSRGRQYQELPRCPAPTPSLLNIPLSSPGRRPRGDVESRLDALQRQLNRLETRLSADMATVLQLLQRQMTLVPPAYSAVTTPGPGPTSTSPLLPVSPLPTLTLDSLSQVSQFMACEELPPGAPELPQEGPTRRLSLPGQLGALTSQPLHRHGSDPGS

| Compound | hERG current change (%, negative = inhibition) at 10uM [%] |
| --- | --- |
| CCCCN(CC)Cc1ccc(CNC(=S)Nc2cccc(F)c2)o1 | -43.7 |
| O=C(Nc1ccccc1Cl)Nc1cccc2cccnc12 | 14.9 |
| CC(=O)C1=C(O)C(=O)N(Cc2cccnc2)C1c1ccccc1Cl (stereo not drawn) | 7.25 |
| CNc1nc(C)c(C(=O)OCc2ccccc2)s1 | 15.9 |
| O=C(Nc1ccccc1)NC1CCS(=O)(=O)C1 (stereo not drawn) | -0.437 |
| CC(C)C(CC(=O)NCc1ccco1)c1ccco1 (stereo not drawn) | 19.6 |
| NC(=O)c1ccc(OCC2CCCO2)cc1 (stereo not drawn) | 11.4 |
| C/C(N)=C(/C#N)C(=O)COC(=O)CCS(=O)(=O)c1ccccc1 | 12.1 |
| C/C(=N/NC(=O)c1sc(NS(=O)(=O)c2ccccc2)nc1C)c1ccccc1 | 10 |
| O=C(c1ccco1)N1CCN(c2ncnc3c2[nH]c2ccc(Cl)cc23)CC1 | -65.2 |
| COc1ccccc1OCC(=O)Nc1ccccc1C(=O)NCc1ccco1 | -10.4 |
| Cc1c(C=O)c2ccccn2c1C(=O)c1cccs1 | 0.847 |
| CNC(C)C#Cc1ccc2sc3cc(OC)c(OC)cc3c(=O)c2c1 (stereo not drawn) | 4.04 |
| O=C1/C(=C/c2cccnc2)SC(=S)N1CC1CCCO1 (stereo not drawn) | 22.7 |
| CC(=O)N1CCN(S(=O)(=O)c2cccc(C(=O)NC3CC3)c2)CC1 | 14.9 |
| COc1ccc(C(=O)COC(=O)[C@H](C)Nc2ccc(C(F)(F)F)cc2[N+](=O)[O-])cc1 | 15.9 |
| CC(=O)c1cnc2c(-c3cccc(Br)c3)cnn2c1C | 9.14 |
| CCCC(=O)NC(Nc1ccc(S(=O)(=O)Nc2cc(C)on2)cc1)(C(=O)OCC)C(F)(F)F (stereo not drawn) | 23.5 |
| CCn1c2ccccc2c2cc(C3C(C#N)=C(N)Oc4n[nH]c(COC)c43)ccc21 (stereo not drawn) | 11.4 |
| O=S(=O)(NCCCc1ccccc1)c1ccc(Br)cc1 | -9.3 |
| Cc1ccn2cc(CC(=O)O)nc2c1 | -7.18 |
| CCOC(=O)C(CSCc1ccccc1)NC(=O)OC(C)(C)C (stereo not drawn) | -14.8 |
| CCOc1ccc(NC(=O)CN2C(=O)CSc3ccc(S(=O)(=O)N4CCCC4)cc32)cc1 | -21.2 |

| Compound | hERG current change (%, negative = inhibition) at 10uM [%] |
| --- | --- |
| O=C(CN1CCCC1)N1CCCC(c2ccc(F)cc2)c2ccc(F)cc21.O=C(O)C(=O)O (stereo not drawn) | -32 |
| CC1(C)CC(=O)c2cnc(NCc3ccco3)nc2C1 | 3.47 |
| Cc1ccc(CNS(=O)(=O)c2ccc3c(c2)NC(=O)C(C)S3)cc1 (stereo not drawn) | -1.22 |
| O=C(Nc1ccccn1)c1ccc(Cl)c([N+](=O)[O-])c1 | 3.94 |
| O=[N+]([O-])c1ccc(C(O)CSC(=S)N2CCCCC2)cc1 (stereo not drawn) | -3.13 |
| Cc1cc(C)c(NC(=O)CS)c(Cl)c1 | 6.4 |
| O=C(CN1CCN(C(=O)c2ccccc2)CC1)Nc1cc(S(=O)(=O)N2CCCC2)ccc1Cl | -32.8 |
| S=C1NC[C@H](Cc2ccccc2)N1CCc1cccc2ccccc12 | 17.6 |
| O=C(N/N=C/c1ccc(O)cc1O)C(=O)N/N=C/c1ccc(O)cc1O | 14.1 |
| CC(c1ccccc1)N1CC(C(=O)O)CC1=O (stereo not drawn) | 10.7 |
| COc1ccc(CCNC2CC(=O)N(C)C2=O)cc1OC (stereo not drawn) | -8.54 |
| Cc1ccc(CNC2CCCCC2)s1.Cl | -13.9 |
| CCOc1ccc(CN(C)CC(=O)Nc2ccc3c(c2)CCC3)cc1OC | -39 |
| CCOc1cc(C)c(Cl)cc1S(=O)(=O)N1CCCC1 | -14.2 |
| Cc1ccc(C)c(S(=O)(=O)NCC(c2ccco2)N2CCc3ccccc3C2)c1 (stereo not drawn) | -9.3 |
| O=C(NC(CC(=O)N1CCN(c2ccccc2)CC1)c1ccccc1)c1ccccc1Cl (stereo not drawn) | -46.8 |
| COC(=O)c1ccc(S(N)(=O)=O)o1 | -13 |
| N#Cc1c(NC(=O)c2ccc([N+](=O)[O-])o2)sc2c1CCC2 | 20.8 |
| O=C1C(Cl)=C(N2CCCCC2)C(=O)N1c1ccccc1 | -19.4 |
| COc1cc(NC(=O)CCc2nc(-c3cccs3)no2)cc(OC)c1OC | 10.6 |
| COc1ccc(C(=S)N2CCOCC2)cc1OC(=O)c1ccc(C)cc1 | -9.27 |
| CCN1C(=O)C(C(=O)Nc2ccc(OC)cc2)C2CC1(C)Oc1ccccc12 (stereo not drawn) | -17.3 |
